# From PubChem BioAssay (NCI)
#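 Values below derive from 48-hour exposures of cells grown in 96-well plates, with endpoints linearly interpolated between the two concentrations bracketing the appropriate inhibition level. GI50 = concentration required for 50% inhibition of growth.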 For part of its entries the source gives two or more results. The list is limited to them. There may be further records. For some of these results: Values given together are repeats across runs, samples, wells, individuals or studies. Marks in square brackets tell the records apart. A, B and so on number the origins entry by entry.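 TGI: concentration producing complete growth inhibition.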 For some of these results: Records of one sample usually come from different ranges of test concentrations, which the source does not state; a value can be the end of its range.
# Experiments:
# Assay in all cases: NCI-60 cell line screen, 48 h
# OVCAR-4 ovarian = tested on: OVCAR-4 ovarian
# CCRF-CEM leukemia = tested on: CCRF-CEM leukemia
# EKVX NSCLC = tested on: EKVX NSCLC
# HL-60(TB) leukemia = tested on: HL-60(TB) leukemia
# HS 578T breast = tested on: HS 578T breast
# IGROV1 ovarian = tested on: IGROV1 ovarian
# MOLT-4 leukemia = tested on: MOLT-4 leukemia
# NCI/ADR-RES ovarian = tested on: NCI/ADR-RES ovarian
# OVCAR-8 ovarian = tested on: OVCAR-8 ovarian
# SK-MEL-5 melanoma = tested on: SK-MEL-5 melanoma
# SNB-75 CNS = tested on: SNB-75 CNS
# HT29 colon = tested on: HT29 colon
# KM20L2 colon = tested on: KM20L2 colon
# OVCAR-5 ovarian = tested on: OVCAR-5 ovarian
# SF-295 CNS = tested on: SF-295 CNS
# U251 CNS = tested on: U251 CNS
# UACC-257 melanoma = tested on: UACC-257 melanoma
# UACC-62 melanoma = tested on: UACC-62 melanoma
Compound,GI50 (OVCAR-4 ovarian),TGI (CCRF-CEM leukemia),TGI (EKVX NSCLC),TGI (HL-60(TB) leukemia),TGI (HS 578T breast),TGI (IGROV1 ovarian),TGI (MOLT-4 leukemia),TGI (NCI/ADR-RES ovarian),TGI (OVCAR-8 ovarian),TGI (SK-MEL-5 melanoma),TGI (SNB-75 CNS),TGI (HT29 colon),TGI (KM20L2 colon),TGI (OVCAR-5 ovarian),TGI (SF-295 CNS),TGI (U251 CNS),TGI (UACC-257 melanoma),TGI (UACC-62 melanoma)
C=CCN1C(=O)/C(=C/c2ccc(OC)cc2)N=C1SC1OC(COC(C)=O)C(OC(C)=O)C(OC(C)=O)C1OC(C)=O (configuration not stated),"5.71 µM [sample A, mean of 2 tests] and > 100 µM [sample B, 1 test]",–,–,–,–,–,–,–,–,–,–,–,–,–,–,–,–,–
Clc1ccc(N/N=C(\c2ccccc2)c2ccccn2)nc1,–,3.64 µM [sample A] and > 37 µM [sample B],5 µM [sample A] and > 100 µM [sample B],29.3 µM [sample A] and 982 nM [sample B],4.29 µM [sample A] and > 100 µM [sample B],2.45 µM [sample A] and > 41.3 µM [sample B],4.41 µM [sample A] and > 66.5 µM [sample B],64.3 nM [sample A] and 7.15 µM [sample B],22 nM [sample A] and > 100 µM [sample B],11.9 µM [sample A] and 1.13 µM [sample B],3.99 µM [sample A] and > 51.9 µM [sample B],–,–,–,–,–,–,–
COc1cccc2c1C(=O)c1c(O)c3c(c(O)c1C2=O)C[C@@](O)(C(C)=O)C[C@@H]3OC1CC(O)C(O)C(C)O1 (some centres not stated),–,–,–,–,–,4.73 nM and 26.2 µM,–,0.302 nM and 22.2 µM,"0.407 nM, 9.62 µM, 19 µM",–,"4.8 nM, 9.8 µM, 9.02 µM",0.802 nM and 16.4 µM,"0.562 nM, 8.73 µM, 33 µM",0.513 nM and 7.34 µM,"0.411 nM, 7.9 µM, 5.41 µM","0.454 nM, 8.31 µM, 6.31 µM","0.906 nM, 8.81 µM, 18.4 µM","8.82 nM, 5.78 µM, 4.39 µM"
